The list shows a part of the results.

The values that follow come from paper PMC7819943, “Rice protein-binding microarrays: a tool to detect cis-acting elements near promoter regions in rice”.

This experiment deals with T1, OsWOX13 (Oryza sativa, UniProt Q5QMM3 1-267).
T1 sequence: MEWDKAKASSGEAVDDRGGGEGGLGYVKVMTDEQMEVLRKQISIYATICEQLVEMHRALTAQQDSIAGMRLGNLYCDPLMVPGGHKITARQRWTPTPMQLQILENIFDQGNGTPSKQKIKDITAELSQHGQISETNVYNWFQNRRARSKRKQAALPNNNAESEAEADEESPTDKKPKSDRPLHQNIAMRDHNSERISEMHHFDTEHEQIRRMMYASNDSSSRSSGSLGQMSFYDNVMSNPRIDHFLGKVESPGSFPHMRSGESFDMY
Briefly: protein-binding microarray (RPBM); PBS, 2% BSA, 51.3 ng/ul salmon testes DNA, 50 uM zinc acetate, 200 nM TF, 25 C, 1 h; high values mean tight binding. The conditions noted are these: protein: recombinant; tags: N-terminal polyhistidine and DsRed monomer fusion (pET32a); label: CyDye5-dUTP incorporated in the synthesized complementary strand; 3' TTTTT single-stranded linker to array surface; dsDNA, one strand shown. An outline of the steps:
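The binding signal for each feature is its fluorescence intensity in arbitrary units. An Axon 4000B scanner was used to read a custom Agilent array that had been made double-stranded with Cy5-dUTP primer extension, blocked with 2% BSA, incubated at 25 °C for 1 h with 200 nM protein in PBS, 2% BSA, salmon testes DNA and 50 µM zinc acetate, and washed. The protein was an N-terminal polyhistidine–DsRed transcription factor fusion from E. coli BL21-CodonPlus, purified on Ni–NTA.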
On to “TGCACATTGATAAACTGTTACATTATCCAGCAAAATTTCTCGGAGTCACCTAGTGCAG”, for which the binding signal is 4490 fluorescence intensity (a.u.).
For “ATATCTAATTTATCAACAAAGTTTGCTAAATTTGGATGTCCGGAGTCACCTAGTGCAG” the value was 13300 fluorescence intensity (a.u.); for “TTACAAAAGAATTAATTACCAGATCATTTTAAAATAAGCACGGAGTCACCTAGTGCAG”, 6220 fluorescence intensity (a.u.).
For “ACCAAGGATAATTAATTCTACTTATCACCCATTTAAACATCGGAGTCACCTAGTGCAG” the value was 14900 fluorescence intensity (a.u.).
For “TGATGATTTGATTTGATTTGATTCAATCTCCAAATCGATCCGGAGTCACCTAGTGCAG” the value was 65100 fluorescence intensity (a.u.); for “TAGATTGATGGTTGCTGGCTTATAAATAACAGCTAGCCATCGGAGTCACCTAGTGCAG”, 27000 fluorescence intensity (a.u.).
In the case of “AGTAATTTACATATATTATAGAAATATATTATAGAAGTAACGGAGTCACCTAGTGCAG”, the binding signal was 14500 fluorescence intensity (a.u.).
Consider “TTGCTGATAAAGGGATTGATGACCTTGTACATAAGGACTACGGAGTCACCTAGTGCAG”, for which the binding signal is 8190 fluorescence intensity (a.u.).
As to “CGTCAAAATTAGAAGTTTGACTAAAATTGAAAGTTTGAAGCGGAGTCACCTAGTGCAG”, the binding signal is 6040 fluorescence intensity (a.u.).
For “AAAATATATTGACTGTTGGATTTAATGAAATTTGGTGTTACGGAGTCACCTAGTGCAG” the value was 25100 fluorescence intensity (a.u.).
As to “AATGACTGACTCCATTAATTCATCCAAACTGTACAGCTAGCGGAGTCACCTAGTGCAG”, the binding signal was 33900 fluorescence intensity (a.u.).
For “CCACATAATTGTTAATTAATAATAAAGCCTCCAGATTATACGGAGTCACCTAGTGCAG” the value was 25500 fluorescence intensity (a.u.).
For “TGAATTTTGTTGATTGGTCGGAGCTTGGGGTTGTGTATGGCGGAGTCACCTAGTGCAG” the value was 32800 fluorescence intensity (a.u.); for “GTTGCAAATTGTATGATTTGTATCATATACCTTTTGAACCCGGAGTCACCTAGTGCAG”, 15600 fluorescence intensity (a.u.).
For “TTTGGCTTCAATCTAAACGTAACTTTACCTTACCAAAATTCGGAGTCACCTAGTGCAG” the value was 3360 fluorescence intensity (a.u.); for “TCCGTAAATTTGTCTTCTACTATTACAGGCTTCCTTTGAACGGAGTCACCTAGTGCAG”, 9240 fluorescence intensity (a.u.).
“GTCTTAATTGAATGCATCAATTATACTTTTGCAGGAGTTTCGGAGTCACCTAGTGCAG”: the binding signal is 64900 fluorescence intensity (a.u.).
With “GCTTATATAATTGCATATAACATAGGTAGCTACAAGGATGCGGAGTCACCTAGTGCAG”, the binding signal is 16100 fluorescence intensity (a.u.).
Then “TCTCAATCAAAATTATTTAGATTTGTCCAAATTTATAGAACGGAGTCACCTAGTGCAG”, with 24600 fluorescence intensity (a.u.).
Then “GTGTGATTGTGATGTTGCATGGTTAGTATTGTGTGTGCGTCGGAGTCACCTAGTGCAG”, with 20800 fluorescence intensity (a.u.).
Consider “CCTAATTATCTTAGTAATCACCTTTCTTAGTCACCGGCAACGGAGTCACCTAGTGCAG”, for which the binding signal was 21000 fluorescence intensity (a.u.).
Then “AAATGTGACCATAATTGGTTTTATGTATTTGGATGGTATGCGGAGTCACCTAGTGCAG”, with 7960 fluorescence intensity (a.u.); and “ACTAATTTAATCAGGCTTGCGCGAGCTTGGCGGCGCGTAGCGGAGTCACCTAGTGCAG”, with 21700 fluorescence intensity (a.u.).
As to “TAGAATTACTTACTAAATTGCTTGTTATATTGAAGATATTCGGAGTCACCTAGTGCAG”, the binding signal is 5790 fluorescence intensity (a.u.).
Then “CTCTCAGTGTGTCAATCACCTTGTAACACACATCCACACACGGAGTCACCTAGTGCAG”, with 4660 fluorescence intensity (a.u.); and “CTTAATTAATAGGGTATTAATAACCTCCCTAAAGTCATTGCGGAGTCACCTAGTGCAG”, with 60200 fluorescence intensity (a.u.).
“TTCGCATCTCAACCAATCACAATCTTCTACCACTTAATTCCGGAGTCACCTAGTGCAG”: the binding signal was 3880 fluorescence intensity (a.u.).
Then “ATTTAAGTTAATTACATAATGTAAATCCTTCTCAACTTCTCGGAGTCACCTAGTGCAG”, with 8880 fluorescence intensity (a.u.).
Then “ATCTTGTTACGAAGATTTAATTGTAACGAACACAATGGTGCGGAGTCACCTAGTGCAG”, with 4020 fluorescence intensity (a.u.); and “GATTTTGATTTGCAGATGAAGCTGATCCGTGGAGAATTCTCGGAGTCACCTAGTGCAG”, with 12400 fluorescence intensity (a.u.); and “GCACACAAATCAACAAAGTGACAGTACACAGATAACGAATCGGAGTCACCTAGTGCAG”, with 8420 fluorescence intensity (a.u.).
Then “CGTGTCAATCACCATGTTCTCCCTCCTTTCCCTTGCCCACCGGAGTCACCTAGTGCAG”, with 27000 fluorescence intensity (a.u.).
Turning to “TGTAAATTTTGCCACTAATTATTTCATTTTGTATTTGGGCCGGAGTCACCTAGTGCAG”, the binding signal is 37700 fluorescence intensity (a.u.).
For the sequence “AAATCATTGACCAGCATTTATTTGTGATGACAATGACAAGCGGAGTCACCTAGTGCAG”, the binding signal was 3990 fluorescence intensity (a.u.).
Consider “CATTAATTAAACTAACCCATCCATTGATTGATTATCAGTGCGGAGTCACCTAGTGCAG”, for which the binding signal was 63500 fluorescence intensity (a.u.).
For “CCACCAAGTATAAATTATGATTAGTAGTAACTAATCATAGCGGAGTCACCTAGTGCAG” the value was 10100 fluorescence intensity (a.u.).
For “TGCTAATGACGATTAATTAAGTTTAATAGATTCGTCTCGCCGGAGTCACCTAGTGCAG” the value was 43000 fluorescence intensity (a.u.); for “CAAGGGAGGTCGGGGAGGATGATTGGGTTGGGTAGAGCGGCGGAGTCACCTAGTGCAG”, 4440 fluorescence intensity (a.u.); for “AAATTAAATTGTTGAAGCCATTTTAATACTTATTGGTTGCCGGAGTCACCTAGTGCAG”, 17700 fluorescence intensity (a.u.).
For “GCACAGAATAAATTTGAAACCGATACAAAATTATTGCTGTCGGAGTCACCTAGTGCAG” the value was 5150 fluorescence intensity (a.u.); for “GCGAAATTGTACAATCTAATATAGCTAACTAAATAGACAACGGAGTCACCTAGTGCAG”, 19700 fluorescence intensity (a.u.).
On to “CTAAATGAACTGATATATCGCTGACTTGGTTTCCATGCAGCGGAGTCACCTAGTGCAG”, for which the binding signal was 9630 fluorescence intensity (a.u.).
